Measured values taken from patent US20250179210A1, “ANTI-CEACAM5 ANTIBODIES AND CONJUGATES AND USES THEREOF” (Merck Patent GmbH, priority 2022, published 2025).

Test system: human pancreatic cell line derived xenograft model HPAF-II
Test: Pancreatic cell line derived xenograft model HPAF-II
Format: in vivo, mouse
Details: single i.v. treatment
Method: 5×10^6 HPAF-II cells were injected subcutaneously into the right flank of six to eight weeks old immunodeficient female mice (Hsd:Athymic Nude-Foxn1nu, Envigo). […] Tumor length (L) and width (W) were measured with calipers and tumor volumes were calculated using L×(W^2)/2.
Efficacy of ADC1-M and ADC3-M in comparison to ADC8 was evaluated in the human pancreatic adenocarcinoma, cell line-derived xenograft model HPAF-II (ATCC, CRL-1997). Six to eight weeks old immunodeficient female mice (Hsd:Athymic Nude-Foxn1nu, Envigo) were injected subcutaneously in the right flank with 5×10^6 HPAF-II cells. When tumors reached a mean volume of 150 mm^3, 10 mice/group were treated once intravenously with ADC1-M (1 mg/kg or 6 mg/kg) or with ADC3-M (1 mg/kg or 6 mg/kg) or with ADC8 (1 mg/kg or 6 mg/kg). Tumor length (L) and width (W) were measured with calipers and tumor volumes were calculated using L×W^2/2.

B1: ADC8 (conjugate)
heavy: DIQLTQSPSSLSASVGDRVTITCKASQDVGTSVAWYQQKPGKAPKLLIYWTSTRHTGVPSRFSGSGSGTDFTFTISSLQPEDIATYYCQQYSLYRSFGQGTKVEIKRTVAAPSVFIFPPSDEQLKSGTASVVCLLNNFYPREAKVQWKVDNALQSGNSQESVTEQDSKDSTYSLSSTLTLSKADYEKHKVYACEVTHQGLSSPVTKSFNRGECEVQLVESGGGVVQPGRSLRLSCSASGFDFTTYWMSWVRQAPGKGLEWIGEIHPDSSTINYAPSLKDRFTISRDNAKNTLFLQMDSLRPEDTGVYFCASLYFGFPWFAYWGQGTPVTVSSASTKGPSVFPLAPSSKSTSGGTAALGCLVKDYFPEPVTVSWNSGALTSGVHTFPAVLQSSGLYSLSSVVTVPSSSLGTQTYICNVNHKPSNTKVDKRV[letters of human IgG1 Fc left out]
light: DIQLTQSPSSLSASVGDRVTITCKASQDVGTSVAWYQQKPGKAPKLLIYWTSTRHTGVPSRFSGSGSGTDFTFTISSLQPEDIATYYCQQYSLYRSFGQGTKVEIKRTVAAPSVFIFPPSDEQLKSGTASVVCLLNNFYPREAKVQWKVDNALQSGNSQESVTEQDSKDSTYSLSSTLTLSKADYEKHKVYACEVTHQGLSSPVTKSFNRGEC
anti-tumor effect (1 mg/kg): no significant anti-tumor effect | anti-tumor effect (6 mg/kg): no significant anti-tumor effect
